From US20260042854A1, “ANTI-GLP-1R ANTIBODIES AND USES THEREOF” (SCIWIND BIOSCIENCES USA CO., LTD, priority 2022, published 2026)

Key:
Monkey GLP-1R = target: T1, Monkey GLP-1R (Macaca fascicularis, UniProt F8V479); test: cAMP HTRF antagonism assay in HEK293 transfected with monkey GLP-1R; assay type: cell-based
T1 construct: expressed in transfected cells; host or cells: HEK293 (ATCC, CRL-1573)
Description: (§1) HEK293 cells (ATCC, cat no. CRL-1573) were transfected with GLP-1R_pcDNA3.1/G418 (+) plasmids which can transcribe the mRNA of human (NM_002062.5), monkey (JN033215.1) and mouse (NM_021332.2) GLP-1R polypeptide. […] The plate was further incubated at 37° C. for 120 minutes. Finally, the CAMP level was measured with cAMP HTRF kit (Cisbio, 62AM4PEB). […] The data were analyzed by four-parameter curve fitting with GraphPad Prism 9, and IC50 was calculated.

C57BL/6 mice = test: OGTT in C57BL/6 mice (no exogenous GLP-1 added); assay type: in vivo, mouse; conditions: wildtype C57BL/6, single s.c. P16288 100 or 200 nmol/kg
Description: 6-week-old male C57BL/6 mice (18-21 g) were assigned into 4 groups, with 5 mice in each group. Each group was given a single subcutaneous injection of vehicle (PBS), P16288 (200 nmol/kg), P16288 (100 nmol/kg) or P16289 (100 nmol/kg), and were fasted for 18 hours after administration. After the fasting, glucose solution was given to mice by oral administration at a dose of 13.9 mmol/kg. The blood glucose levels of the mice before (0 min) and 15 min. 30 min, 60 min, 90 min, 120 min, 180 min and 270 min after the administration of glucose were measured with blood glucose meter. The AUCs of the blood glucose-time curves of each mouse from 0 to 270 min were calculated with GraphPad Prism 9. The blood glucose levels and the AUCs were shown in Mean±SEM and the differences among groups were compared. Statistical differences were analyzed with One-way ANOVA. As compared with the vehicle group, * stands for p<0.05; ** stands for p<0.01; *** stands for p<0.001; stands for p<0.0001: ns stands for no significance. The significance markers were not shown in the line chart since they would overlap and be difficult to distinguish.

hGLP-1R = hGLP-1R (Homo sapiens, UniProt P43220); test: cAMP HTRF antagonism assay in HEK293 transfected with human GLP-1R; assay type: cell-based; parameters: expressed in transfected cells; host or cells: HEK293 (ATCC, CRL-1573)
Chain of UniProt P43220 (P43220 24-463): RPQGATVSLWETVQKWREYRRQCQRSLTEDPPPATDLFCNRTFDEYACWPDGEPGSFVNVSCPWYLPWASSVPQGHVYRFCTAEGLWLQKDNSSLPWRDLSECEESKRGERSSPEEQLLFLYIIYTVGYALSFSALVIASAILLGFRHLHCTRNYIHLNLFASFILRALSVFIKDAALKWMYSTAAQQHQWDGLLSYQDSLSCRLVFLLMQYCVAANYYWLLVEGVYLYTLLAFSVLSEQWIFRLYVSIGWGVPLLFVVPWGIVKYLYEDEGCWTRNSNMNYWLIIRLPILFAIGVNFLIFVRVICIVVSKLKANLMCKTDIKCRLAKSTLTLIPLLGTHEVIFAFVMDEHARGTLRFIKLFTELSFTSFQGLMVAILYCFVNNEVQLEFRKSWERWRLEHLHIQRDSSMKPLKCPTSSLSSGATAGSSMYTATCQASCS
Description: as §1

T1 sequence (F8V479 24-463): as the sequence (P43220 24-463) above, with S112N, F120S, S202G, L205V, L237F, W241R, I249V counted along it

B1: P16288: Fully human anti-GLP-1R IgG4 (S228P) antibody; heavy chain SEQ ID NO: 9, light chain SEQ ID NO: 10 (antibody)
heavy: QVQLVQSGAEMKKPGASVKVSCKTSGYRFSTYVISWVRQTPGQGLEWMGWISPYTGDIDYAQKFQGRVTITADESTSTAYMELSRLRSDDTAVYYCARERDGYNFPGMDVWGQGTTVTVSSASTKGPSVFPLAPCSRSTSESTAALGCLVKDYFPEPVTVSWNSGALTSGVHTFPAVLQSSGLYSLSSVVTVPSSSLGTKTYTCNVDHKPSNTKVDKRV[human IgG4 Fc with S228P (EU numbers) not listed]
light: DIQLTQSPSFLSASVGDRVTITCRASQGISSYLAWYQQKPGRAPKLLIYSASTLQRGVPSRFSGSGSGTDFTLTISSLQPEDYATYYCQQADSFPPSFGPGTKVDIKRTVAAPSVFIFPPSDEQLKSGTASVVCLLNNFYPREAKVQWKVDNALQSGNSQESVTEQDSKDSTYSLSSTLTLSKADYEKHKVYACEVTHQGLSSPVTKSFNRGEC
In the case of B1, the “antagonism of activation of monkey GLP-1R by GLP-1 (in words)” value (Monkey GLP-1R) is reported as “can antagonize the activation of human and monkey GLP-1R by GLP-1 at a similar level”, the “blood glucose levels in OGTT versus vehicle group (in words)” value (C57BL/6 mice) is reported as “no statistical difference from the vehicle group” and the “antagonism of activation of human GLP-1R by GLP-1 (in words)” value (hGLP-1R) is reported as “can antagonize the activation of human and monkey GLP-1R by GLP-1 at a similar level”.
